Reference: US20090291088A1, “THERAPEUTIC COMBINATIONS OF ANTI-IGF-1R ANTIBODIES AND OTHER COMPOUNDS” (Biogen Idec MA Inc., priority 2008, published 2009)

B1: M13-C06.G4.P.agly: full-length hinge-modified aglycosylated human gamma 4, kappa antibody with the binding domain of Fab M13-C06 (antibody)
heavy: EVQLLESGGGLVQPGGSLRLSCAASGFTFSIYRMQWVRQAPGKGLEWVSGISPSGGTTWYADSVKGRFTISRDNSKNTLYLQMNSLRAEDTAVYYCARWSGGSGYAFDIWGQGTMVTVSSASTKGPSVFPLAPCSRSTSESTAALGCLVKDYFPEPVTVSWNSGALTSGVHTFPAVLQSSGLYSLSSVVTVPSSSLGTKTYTCNVDHKPSNTKVDKRV[human IgG4 Fc with S228P T299A (EU numbers) not written out]
light: DIQMTQSPLSLSASVGDRVTITCQASRDIRNYLNWYQQKPGKAPKLLIYDASSLQTGVPSRFGGSGSGTDFSFTIGSLQPEDIATYYCQQFDSLPHTFGQGTKLEIKRTVAAPSVFIFPPSDEQLKSGTASVVCLLNNFYPREAKVQWKVDNALQSGNSQESVTEQDSKDSTYSLSSTLTLSKADYEKHKVYACEVTHQGLSSPVTKSFNRGEC
B2: M14-G11.G4.P: full-length human IgG4.P version of Fab M14-G11 (antibody, V domains shown)
VH: EVQLLESGGGLVQPGGSLRLSCAASGFTFSNYPMYWVRQAPGKGLEWVSRISSSGGRTVYADSVKGRFTISRDNSKNTLYLQMNSLRAEDTAVYYCARDRWSRSAAEYGLGGYWGQGTLVTVSS
VL: DIQMTQSPDSLAVSLGERATINCKSSQSVLYSSNNKNYLAWYQQKPGQPPKLLIYLASTRESGVPDRFSGSGSGTDFTLTISSLQAEDVAVYYCQQYYSTWTFGQGTKVEIK

Key:
BxPC3 [1] = experiment: Cell cycle arrest of BxPC3 cells (propidium iodide FACS); format: cell-based, human; settings: 133.3 nM antibody, IGF-1 at 200 ng/ml, 24 hours
Procedure: Method: The ability of fully human IGF-1R antibodies to arrest cell cycle progression was assessed by FACS analysis; monitoring incorporation of propidium iodide in cultured BxPC3 cells. BxPC3 cells (4×10^5 cells/well) were plated into 6 well plates. After 24 hours, cells were changed to serum-free media (SFM) for the following 24 hours. […] After 24 hours, the cells were trypsinized and fixed with ethanol. DNA content was stained with propidium iodide (PI) prior to FACS analysis. An isotype matched antibody, IDEC-151 (human G4), was used as a negative control.

IGF-1R = IGF-1R (Homo sapiens, UniProt P08069); experiment: Internalization of IGF-1R in MCF-7 cells, confocal microscopy; format: cell-based; parameters: wild type IGF-1R expressed on MCF-7 tumor cells; endogenous in cells; host or cells: MCF-7; settings: 10 μg/ml, time 0, 15 and 60 minutes
Procedure: MCF-7 cells were seeded at 50,000 cells per well into 8 well chamber slides (Becton Dickinson Collagen Type 1 coated culture slides, BD BioCoat™ #354630) 48 hours prior to staining procedures. Cells were routinely maintained below 20 passages. On day of staining procedures, culture media was discarded from each well and replaced with 500 μl cold incubation buffer (MEM Eagle ATCC #30-2003+1% BSA). Cells were washed 2× with this buffer for 3 min each wash. 250 μl of each mAb or human G4.P.agly antibody to be tested was then added to the appropriate well at a concentration of 10 μg/ml, diluted in incubation media, and incubated on ice for 1 hour. A murine anti-human-IGF-1R antibody (Lab Vision/NeoMarkers, clone 24-31 cat# MS-641) was used as a positive control antibody to compare degree of internalization. After the 1 hour incubation on ice, the time zero (t=0′) slide was washed 3× with 500 μl of cold wash buffer (PBS+1% BSA+2% Goat serum) for 3 min each wash (slides always kept on ice!). The t=0 slide was then fixed with 500 μl 4% paraformaldehyde (diluted with PBS from 16% stock; EMS #15710) for 15 minutes at room temperature. The t=0 slide was then washed again 3× with cold wash buffer for 3 minutes each wash, then left on ice. Meanwhile, the remaining slides were put into a 37° C. incubator for their designated time points (15 and 60 minutes). […]

BxPC3 xenograft = experiment: BxPC3 xenograft, combination with gemcitabine; format: in vivo, mouse
Procedure: Gemcitabine alone, M13.C06.G4.P.agly antibody alone, and sham injections of the delivery vehicle alone were administered as negative controls. Tumor volume at the start of the therapy was approximately 200 mm^3.

BxPC3 [2] = experiment: IGF-1 and IGF-2 stimulated tumor cell growth, CELL TITER-GLO, BxPC3; format: cell-based, human; settings: IGF at 100 ng/ml, serum free
Procedure: NCI-H23, Calu-6, Colo-205, Panc-1, BxPC-3 (ATCC) tumor lines were purchased from ATCC. Cell lines were grown in complete growth medium containing RPMI-1640 (ATCC), 10% fetal bovine serum (Irvine Scientific Inc.) and 50 μg/ml of Gentamycin (Gibco, Invitrogen). Trypsin-EDTA solution (Sigma) was used for removal of adherent cells from culture vessels. Phosphate buffered saline, pH 7.2, was from MediaTech Inc The 96-well clear bottom plates for luminescent assay was purchased from Wallac Inc.
Cells grown to 80% monolayers were, trypsinized, washed, resuspended and plated into 96-well plates in 200 μl of 2% growth medium at 8×10^3 cells/well for NCI-H23 and Colo-205 cells; and 5×10^3 cells/well for Calu-6, Panc-1 and BxPC-3 cells. After 24 hours, the culture medium was replaced with 100 μl of serum free medium (SFM), and 50 μl of serially diluted antibodies at 4× concentration was added. […] All treatments were done in triplicates. Cell growth was measured using the CELL TITER-GLO™ Luminescent Cell Viability Assay (Promega, Madison, Wis.). The 1:1 mixture of reagent and SFM was added at 200 μl/well. Luminescence was detected on Wallac (Boston, Mass.) plate reader.
Method: The effect of antibody on tumor growth in vitro was measured using a CELL TITER-GLO™ assay (Promega Corporation, 2800 Woods Hollow Rd., Madison, Wis. 53711 USA). […] Inhibition was calculated as [1−(Ab−SFM)/(IGF−SFM)]×100%. […]

Rhesus IGF-1R = molecular target: T1, Rhesus IGF-1R (Macaca mulatta, UniProt I2CWY3); experiment: Binding to Rhesus IGF-1R expressed in CHO cells (flow cytometry, confocal)
T1 construct: expressed in transfected cells; host or cells: CHO cells
T1 sequence (I2CWY3 31-1367): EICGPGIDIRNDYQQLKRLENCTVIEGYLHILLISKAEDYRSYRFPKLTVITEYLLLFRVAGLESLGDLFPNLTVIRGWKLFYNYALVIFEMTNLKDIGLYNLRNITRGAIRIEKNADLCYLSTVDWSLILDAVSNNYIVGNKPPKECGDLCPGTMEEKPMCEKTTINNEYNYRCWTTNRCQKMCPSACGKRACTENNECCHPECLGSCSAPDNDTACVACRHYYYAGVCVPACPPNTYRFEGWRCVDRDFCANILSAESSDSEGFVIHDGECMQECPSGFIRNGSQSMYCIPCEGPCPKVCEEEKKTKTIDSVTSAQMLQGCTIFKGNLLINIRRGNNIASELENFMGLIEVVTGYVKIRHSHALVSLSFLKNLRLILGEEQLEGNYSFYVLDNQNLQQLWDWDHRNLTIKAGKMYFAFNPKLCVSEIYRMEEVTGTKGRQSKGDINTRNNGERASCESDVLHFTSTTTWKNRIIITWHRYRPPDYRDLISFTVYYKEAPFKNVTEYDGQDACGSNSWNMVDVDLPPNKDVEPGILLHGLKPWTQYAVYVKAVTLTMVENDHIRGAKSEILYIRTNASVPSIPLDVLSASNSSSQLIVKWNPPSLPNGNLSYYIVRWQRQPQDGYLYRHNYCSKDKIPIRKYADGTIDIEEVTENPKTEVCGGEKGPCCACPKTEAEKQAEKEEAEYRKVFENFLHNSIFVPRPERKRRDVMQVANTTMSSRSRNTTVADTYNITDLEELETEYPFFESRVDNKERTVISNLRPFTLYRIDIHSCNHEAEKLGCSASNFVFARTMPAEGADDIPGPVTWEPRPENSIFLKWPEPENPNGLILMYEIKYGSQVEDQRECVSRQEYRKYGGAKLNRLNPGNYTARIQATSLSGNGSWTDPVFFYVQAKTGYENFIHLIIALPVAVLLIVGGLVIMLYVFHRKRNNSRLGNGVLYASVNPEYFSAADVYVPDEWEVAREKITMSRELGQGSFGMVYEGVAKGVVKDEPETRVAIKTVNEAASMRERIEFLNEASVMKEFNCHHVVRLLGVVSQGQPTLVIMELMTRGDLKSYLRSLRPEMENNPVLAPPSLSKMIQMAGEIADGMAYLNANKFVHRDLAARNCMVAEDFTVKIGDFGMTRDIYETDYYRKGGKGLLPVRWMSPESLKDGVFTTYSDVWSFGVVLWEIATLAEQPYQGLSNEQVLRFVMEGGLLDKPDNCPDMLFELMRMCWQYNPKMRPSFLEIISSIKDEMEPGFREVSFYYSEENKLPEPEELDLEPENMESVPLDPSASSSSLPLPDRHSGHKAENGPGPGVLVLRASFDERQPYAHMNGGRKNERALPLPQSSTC
Procedure: The ability of anti-human IGF-1R antibodies to recognize the IGF-1R from non-human primates was tested. First Rhesus and cynomolgus monkey IGF-1R was cloned and expressed in CHO cells. The binding of all antibodies was determined by flow cytometry and confirmed by confocal microscopy.

Molecule | cell cycle arrest (BxPC3 [1]) | internalization of IGF-1R (IGF-1R) | efficacy in combination with Gemcitabine (BxPC3 xenograft; antibody 15 mg/kg) | efficacy in combination with Gemcitabine compared to the single agent treatments (BxPC3 xenograft; antibody 30 mg/kg twice a week or 60 mg/kg weekly, gemcitabine 80 mg/kg every 3 days for 4 weeks) | inhibition of BxPC3 cell proliferation driven with IGF-1 and IGF-2 (BxPC3 [2]) | binding to Rhesus IGF-1R (Rhesus IGF-1R)
B1 | arrested the BxPC3 tumor cells at the G0/G1 phase | rapid internalization of IGF-1R in 60 min | additive efficacy | additive efficacy | inhibited | –
B2 | – | internalization property similar to M13-C06.G4.P.agly | – | – | inhibited | specific binding activity
